Results: article PMC4336329 (PLoS ONE, 2015)
Screen size: about 310,000 compounds; about 14,000 (4.5%) showed an effect of 50% or more. The effect is printed as a negative number. The list shows a part of the results.

What follows are compounds tested against human ether-à-go-go-related gene (hERG) potassium channel (human, UniProt Q12809) (assay: primary screen, population patch clamp on CHO cells stably expressing hERG).
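Further: peak tail current of the secondary pulse compared with the same well before compound.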

Sequence of human ether-à-go-go-related gene (hERG) potassium channel (Q12809 whole entry, looked up): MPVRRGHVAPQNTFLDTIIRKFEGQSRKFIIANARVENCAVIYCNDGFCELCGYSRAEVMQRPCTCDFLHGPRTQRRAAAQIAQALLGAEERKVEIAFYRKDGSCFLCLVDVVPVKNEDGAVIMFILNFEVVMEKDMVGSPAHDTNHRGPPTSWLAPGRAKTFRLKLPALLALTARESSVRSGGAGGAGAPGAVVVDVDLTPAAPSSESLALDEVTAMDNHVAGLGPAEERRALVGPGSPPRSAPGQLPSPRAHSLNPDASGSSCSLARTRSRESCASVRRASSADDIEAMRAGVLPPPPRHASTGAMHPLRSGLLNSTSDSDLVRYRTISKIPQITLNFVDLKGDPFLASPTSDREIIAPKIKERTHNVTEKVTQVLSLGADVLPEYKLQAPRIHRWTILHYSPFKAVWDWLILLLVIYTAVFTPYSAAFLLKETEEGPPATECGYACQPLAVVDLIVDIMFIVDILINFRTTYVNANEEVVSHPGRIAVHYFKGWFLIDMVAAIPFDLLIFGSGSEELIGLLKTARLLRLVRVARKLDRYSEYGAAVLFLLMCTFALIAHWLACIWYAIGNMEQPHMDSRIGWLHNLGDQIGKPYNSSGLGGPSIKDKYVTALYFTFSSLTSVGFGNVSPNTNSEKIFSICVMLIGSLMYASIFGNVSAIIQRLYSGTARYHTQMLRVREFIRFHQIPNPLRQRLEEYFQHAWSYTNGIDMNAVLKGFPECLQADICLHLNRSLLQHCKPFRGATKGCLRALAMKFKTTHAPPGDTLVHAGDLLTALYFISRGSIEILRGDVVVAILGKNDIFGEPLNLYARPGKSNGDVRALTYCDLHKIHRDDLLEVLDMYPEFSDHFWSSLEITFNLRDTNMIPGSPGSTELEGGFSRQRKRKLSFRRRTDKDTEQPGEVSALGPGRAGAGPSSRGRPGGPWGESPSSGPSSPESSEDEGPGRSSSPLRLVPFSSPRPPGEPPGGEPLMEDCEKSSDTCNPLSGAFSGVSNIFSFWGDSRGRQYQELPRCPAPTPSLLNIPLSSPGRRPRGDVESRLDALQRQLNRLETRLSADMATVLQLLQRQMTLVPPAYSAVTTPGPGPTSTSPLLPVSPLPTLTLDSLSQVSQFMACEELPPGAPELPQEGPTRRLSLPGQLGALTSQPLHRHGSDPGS

Structure (SMILES)	hERG current change (%, negative = inhibition) at 10uM
COc1ccc(/C=C(\NC(=O)c2ccccc2)C(=O)NCCN2CCOCC2)cc1	-34.3%
Cc1ccc(-n2nnc3c(=O)n(CC(=O)NCc4ccco4)cnc32)cc1	-20.1%
COc1ccc(NC(=O)c2csc3c2CCCCC3)c(OC)c1	-6.93%
CC(=O)c1cccc(S(=O)(=O)N2CCC(C(=O)Nc3cccc(C(=O)NC4CC4)c3)CC2)c1	-0.194%
CN(C)c1ccc(NC(=O)Nc2ccc3c(c2)nnn3C)cc1	6.89%
CCCn1ncc(CN2CCN(Cc3ccc(C)o3)C(CCO)C2)c1C (stereo not drawn)	-12.9%
CC1CCN(C(=O)COc2cccc3c2CCN(C)C3=O)CC1	7.93%
O=C(CCn1c(=O)oc2ccccc21)N1CCCCCC1	-3.32%
CN(CC(=O)Nc1cccc(F)c1)C(=O)CN1C(=O)C2CC=CCC2C1=O (stereo not drawn)	-23.5%
N#CCCn1nc(-c2ccc(Cl)cc2)cc1Nc1ccccc1NC(=O)C(F)(F)F	-15.5%
Cc1ncc([N+](=O)[O-])n1Cc1ccc(Cl)cc1	-12%
Cc1ccc(S(=O)(=O)N2CCCCC2)c(C)c1NS(C)(=O)=O	16.7%
COc1ccc(C(C)(C)C)cc1NC(=O)c1cccc(S(=O)(=O)N2CCN(C(C)=O)CC2)c1	11.5%
Cc1cc(C(=O)N/N=C2\CCCC(=O)C2)c2ccccc2n1	-7.35%
CC(C)(C)NCC(O)CON=C1c2ccccc2-c2ccccc21 (stereo not drawn)	-28.5%
CC(=O)Nc1ccc(Nc2ccc([N+](=O)[O-])cn2)cc1	-14.2%
CC(=O)Nc1cccc(/C(C)=N/NC(=O)c2cc(-c3ccncc3)nc3ccccc23)c1	-6.95%
COc1cccc(OC)c1C(=O)Nc1ccc2c(c1)OCCO2	9.86%
COc1ccc(-n2c(SCC(=O)c3c(N)n(C)c(=O)n(C)c3=O)nc3ccccc32)cc1	19.2%
O=C1CSC(c2ccccn2)N1c1cccc(Cl)c1 (stereo not drawn)	8.61%
CNS(=O)(=O)c1ccc2nc(NC(=O)/C=C/c3ccco3)sc2c1	9.18%
CC1(C)CC(=O)c2cc(C(=O)NC3CCSC3=O)c(=O)n(-c3ccc(Cl)cc3)c2C1 (stereo not drawn)	-19.2%

Structure (SMILES)	hERG current change (%, negative = inhibition) at 10uM
O=C(c1ccco1)N1CCN(C(c2ccccc2F)c2nnnn2Cc2cccs2)CC1 (stereo not drawn)	-51%
COCCNC(=O)c1cn(C)c2ccccc2c1=O	16.3%
O=C(O)C1CC(=O)N(C2CCCCCC2)C1 (stereo not drawn)	6.42%
CC1(C)CC(=O)C2=C(C1)c1c(ccc3ccccc13)NC2c1cc([N+](=O)[O-])cc([N+](=O)[O-])c1O (stereo not drawn)	8.9%
CCOCCOC(=O)C1=C(C)NC(=O)NC1c1cc2c(cc1Br)OCO2 (stereo not drawn)	-30.5%
CCOC(=O)C1(Cc2ccc(OC)cc2)CCN(C(=O)C2CCCO2)CC1 (stereo not drawn)	1.97%
CSc1nc(C)c2cc(C)oc2n1	3.34%
COc1ccc(C(=O)N/C(=C\c2cccc([N+](=O)[O-])c2)C(=O)Nc2cccc(C(=O)O)c2)cc1	5.3%
CC(=O)c1cccc(NC(=O)N2CCCC2C(=O)NCc2ccc3c(c2)OCO3)c1 (stereo not drawn)	3.56%
CCCCOc1ccc(C(=O)NCC(=O)OCC(=O)N2CCN(S(=O)(=O)c3ccc(C)cc3C)CC2)cc1	8.07%
Cc1cc(C(=O)NCCC(c2ccccc2)c2ccccc2)c(C)o1	-17.5%
Nc1nonc1-n1nnc(C(=O)N/N=C/c2ccccc2)c1CSc1ccccc1	12.5%
Cc1ccn2c(=O)nc(SCC(=O)Nc3ccc4c(c3)OCCO4)nc2c1	-12.7%
O=C(c1cc2c(s1)CCCCC2)N1CCN(c2ncccn2)CC1	-25.4%
CN(C)c1cc(NC(=O)CNC(C)(C)C)c2ccccc2n1.O=C(O)C(=O)O	-24.4%
CCOC(=O)N1CCC(N2CCN(S(=O)(=O)c3ccc(NC(C)=O)cc3)CC2)CC1.O=C(O)C(=O)O	-21.8%
Cc1ccccc1C(=O)Nc1ccccc1N1CCCCC1	8.11%
CCCN1C(=O)/C(=C/c2ccc(C)o2)SC1=Nc1ccc(OCC)cc1	7.08%
CC1Sc2ccc(S(=O)(=O)N3CCC(C(N)=O)CC3)cc2NC1=O (stereo not drawn)	21.4%
Cc1cc(C(=O)Nc2nc3ccc(S(C)(=O)=O)cc3s2)c(C)o1	4.2%
Cn1c(=O)n(C)c2cc(S(=O)(=O)Nc3ccccc3O)ccc21	-12.1%
O=C(Nc1ccc2c(c1)OCCO2)c1cc(-n2cnnc2)ccc1Cl	-0.885%

Structure (SMILES)	hERG current change (%, negative = inhibition) at 10uM
COc1ccc(C(=O)NCCc2nnc(SCC(=O)Nc3ccccc3)n2C)cc1	-6.71%
C=C(C)C(=O)Nc1cccc(C2=NOC3(C2)C[C@@H](C(N)=O)N(C(=O)C(=C)C)C3)c1 (stereo partly drawn)	7.14%
COCCOC(=O)c1c(C)oc2ccc(OC(=O)COc3c(F)c(F)c(F)c(F)c3F)cc12	-1.25%
Cc1cccc(-c2noc(-c3ccccc3C(=O)NCc3ccco3)n2)c1	-16.7%
Cc1c(C)c2ccc(OC(C)C(=O)NCCN3CCOCC3)c(C)c2oc1=O (stereo not drawn)	6.07%
COc1ccc(OC)c(N(CC(=O)NC2CCCC2)S(=O)(=O)c2ccc(OC)c(OC)c2)c1	-37.8%
O=C(/C=C/c1ccc(S(=O)(=O)N2CCOCC2)cc1)NCc1ccc(Cl)cc1	-42.2%
OCCC1CN(Cc2ccc(F)cc2Cl)CCN1CCc1ccccc1 (stereo not drawn)	-67.4%
CCc1cccc2c(C(=O)CN3C(=O)NC4(CCc5ccccc54)C3=O)c[nH]c12 (stereo not drawn)	10.4%
Cc1c(C)c2cc(Cl)c(O)c(CN(C)C)c2oc1=O	13.7%
O=C(/C=C/c1ccccc1)N/C(=C\c1ccco1)C(=O)O	19.6%
O=C(NC1CCCc2ccccc21)C1CCCO1 (stereo not drawn)	15.7%
Clc1ccc(COc2ccccn2)cc1Cl	-6.01%
Cc1ccc(C(=O)NCC(=O)OCC(=O)c2ccc3c(c2)NC(=O)CO3)cc1	-60.6%
Cc1ccc2cc(C3CC(c4ccco4)=NN3C(=O)CCCC(=O)O)c(Cl)nc2c1 (stereo not drawn)	-3.32%
COc1ccccc1NC(=O)CSc1nccc(-c2ccco2)n1	13.4%
Cc1sc2nc(C(C)C)nc(SCC(=O)N3CCN(C(=O)c4ccco4)CC3)c2c1C	-72.3%
Cn1cc(-c2ccccc2)cc(C#N)c1=O	22.5%
COc1cccc(C(C(=O)NCC2CCCO2)N(C(=O)Cn2nnc3ccccc32)c2ccccc2C(C)=O)c1OC (stereo not drawn)	4.57%
CCOC(=O)C1(CC2CC2)CCN(Cc2cnc(N(C)C)s2)CC1	-22.1%
COC(=O)CN(C(=O)CSc1nnc(-c2cccc(OC)c2)o1)c1ccc(OC)cc1	1.15%
O=C(Nc1ccc(F)cc1F)C1(c2cccs2)CCOCC1	1.56%

Structure (SMILES)	hERG current change (%, negative = inhibition) at 10uM
COc1ccc(/C=C2/C(=O)N(c3ccccc3)N=C2C)cc1	16.2%
COCC1CCCC1OS(N)(=O)=O (stereo not drawn)	-2.05%
CC(C)c1onc(C(=O)N(C)Cc2ccccc2)c1[N+](=O)[O-]	-9.27%
Cc1ccc(NC(=O)Cc2n[nH]c(=S)n2C)cc1	20.8%
Br.CC1CC(C)CN(CC(=O)c2ccc(OC(F)F)cc2)C1 (stereo not drawn)	-91.5%
CCOC(=O)c1sc(NC(=O)CCN2CC(C)OC(C)C2)c(C(=O)OCC)c1C.O=C(O)C(=O)O (stereo not drawn)	13.9%
C#Cc1ccc(C(=O)Nc2cc(C(N)=O)ccc2N2CCOCC2)cc1	-36.7%
CCn1cc(C(=O)OCC(=O)Nc2cccc(S(=O)(=O)N3CCOCC3)c2)c(=O)c2ccc(C)nc21	1.34%
CC(=O)N1N=C(c2ccncc2)OC12CCCC2	-1.03%
Cc1nc(N2CCN(C(=O)c3ccco3)CC2)c2c3c(sc2n1)CC(C)CC3 (stereo not drawn)	-63.9%
COc1ccc(S(=O)(=O)N(C)Cc2cccs2)cc1Br	-7.76%
CCN(Cc1nc2ccccc2c(=O)[nH]1)Cc1nc2ccsc2c(=O)[nH]1	-14.3%
CCCCC(=O)NNC(=S)NC(=O)c1ccc(C)cc1	33.9%
CN(C(=O)c1cnc(N2CCN(c3ncccn3)CC2)c2ccccc12)c1ccc(Cl)cc1	-14.5%
O=C(NC1CCCCCC1)c1ccccc1-c1ccccc1	-15.7%
COCc1cc(=O)[nH]c2cc(NC(=O)c3cccc(OC)c3)c(C)cc12	19.2%
COc1ccc(-n2nc([N+](=O)[O-])c(=NCCc3ccc(Cl)cc3)n2O)cc1	9.03%
C#CCOc1ccccc1C(N)=O	15.2%
O=C(NCSc1ccncn1)c1ccccc1	13.3%
CCN(CCCCCCN)c1ccc2c(=O)[nH][nH]c(=O)c2c1	6.75%
COc1cccc(CNC(=O)C2CCN(C(=O)N(C)C)CC2)c1	-20.9%
